About 10 (0.005%) of roughly 200,000 compounds were called active. This list was built around the results that the source calls inconclusive (neither active nor inactive); the mix of calls is not that of the screen. Calls follow the shape of the dose curve; as a rule, active = well fitted inhibition curve with a large enough effect; inconclusive = small, poorly fitted or top-dose-only effect, or effect the other way, or another doubt; inactive = no such curve, though single readings can be large or run the other way. Where the call is inconclusive, the potency comes from a doubtful curve fit.
These compounds were tested against Lysosomal alpha-glucosidase (Homo sapiens) (UniProt P10253) (assay: qHTS Assay for Inhibitors of Human alpha-Glucosidase as a Potential Chaperone Treatment of Pompe Disease). Conditions: purified human GAA, 4-MU-alpha-glucoside fluorescence; activity change, negative = inhibition: at 76.9 µM (top of the series) unless noted.
In short: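 Human alpha-glucosidase, 4 nM, pre-mixed with test compounds before 400 uM 4-methylumbelliferyl substrate; 20 min room temperature at pH 5.0. Fluorescence read after pH 10 stop; AC50 values from Hill-equation fits.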
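For activity change, negative = inhibition in this document: plate controls were uninhibited enzyme wells for no effect and no-enzyme background for full effect.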
Potency is read from the fitted curve at half-maximal effect; tags tell the direction and shape of the fitted curve.

Potency, inconclusive:
CC1CC(C)CN(C(=O)CSc2nc3ccsc3c(=O)n2Cc2ccccn2)C1 (configuration not stated) 39.8 µM [inhibitor, single point]
COc1ccc(Br)cc1S(=O)(=O)Nc1cccc(C)n1 50.1 µM [inhibitor, single point]
CCCCCn1c(=O)[nH]c2cc(C(=O)NCCCN(CC)CC)ccc2c1=O 22.4 µM [activator, partial curve]
O=C(Nc1ccccc1F)c1ccc(COc2ccc(Cl)cc2Cl)o1 0.891 µM [inhibitor, full curve]
COC(=O)c1cc(COc2ccc3oc(C)c(C(=O)OC(C)C)c3c2)c(C)o1 56.2 µM [inhibitor, single point]
CCCc1[nH]nc2c1C(c1ccc(Br)s1)C(C#N)=C(N)O2 (configuration not stated) 56.2 µM [inhibitor, single point]
CCOC(=O)c1c(NC(=O)c2cc3n(n2)C(C(F)(F)F)CC(c2ccccc2)N3)sc(C)c1C (configuration not stated) 25.1 µM [activator, partial curve]
O=C(NCc1ccc(F)cc1)c1cc2n(n1)C(C(F)(F)F)CC(C1CC1)N2 (configuration not stated) 39.8 µM [inhibitor, single point]
COC(=O)C1=CN(Cc2cccs2)C=C(C(=O)OC)C1c1cccc(O)c1 39.8 µM [activator, single point]
CCc1nc(N2CCCC(C)C2)c2oc3ccccc3c2n1 (configuration not stated) 50.1 µM [inhibitor, single point]
O=C(NNC(=S)NC1CCCCC1)c1ccc(Cl)s1 50.1 µM [inhibitor, single point]
CCOC(=O)c1sc2cccc(F)c2c1N 31.6 µM [activator, partial curve]
CCOC(=O)Cc1csc(NC(=O)c2c(-c3c(F)cccc3Cl)noc2C)n1 50.1 µM [inhibitor, single point]
CCc1c(C)nc(N)n2c(SCC(=O)N3CCN(c4ccccc4OC)CC3)nnc12 50.1 µM [inhibitor, single point]
COc1ccc(NC(=O)CCS(=O)(=O)c2ccccc2Cl)cc1S(=O)(=O)Nc1ccc(Cl)cc1 3.55 µM [inhibitor, full curve, poor fit]
CC(C)(C)c1ccc(S(=O)(=O)N2CCC(CO)(CC3CCCCO3)CC2)cc1 (configuration not stated) 14.1 µM [inhibitor, partial curve]
COc1cccc(CN(C)C(=S)Nc2ccc(C)c(C)c2)c1 11.2 µM [inhibitor, partial curve]
Cc1cc(=O)oc2c(CN(C)Cc3ccccc3)c(O)ccc12 35.5 µM [activator, partial curve]
Cc1cccc2sc(N(CCN(C)C)C(=O)/C=C/c3cccs3)nc12 28.2 µM [inhibitor, single point]
CN(C)C(=O)N1CCCC(C(=O)NCc2ccccc2)C1 (configuration not stated) 3.98 µM [inhibitor, full curve]
NC(=O)/C(=N\O)c1ccccc1 12.6 µM [inhibitor, single point]
CC(C)c1ccc(OCC(=O)N(Cc2ccccc2)c2ccccn2)cc1 39.8 µM [inhibitor, single point]
COc1ccccc1-c1cc(C(F)(F)F)nc(S(=O)(=O)CCCC(=O)Nc2cc(C)on2)n1 31.6 µM [activator, single point]
COC(=O)C1=CN(CCOC23CC4CC(CC(C4)C2)C3)C=C(C(=O)OC)C1c1ccsc1 28.2 µM [activator, partial curve]
CCN(CC)S(=O)(=O)c1cc(NC(=O)CN2C(=O)NC3(CCCc4ccccc43)C2=O)ccc1C (configuration not stated) 56.2 µM [inhibitor, single point]
Cc1nn(C)cc1NC(=O)CCSc1nc(-c2ccco2)cc(C(F)(F)F)n1 14.1 µM [inhibitor, partial curve, poor fit]
COc1cc(-c2noc(-c3ccccc3C(=O)NCc3ccco3)n2)cc(OC)c1OC 50.1 µM [inhibitor, single point]
CCOC(=O)CCNC(=O)Nc1ccc2nc(C)n(Cc3cccc(Cl)c3)c(=O)c2c1 2.51 µM [inhibitor, full curve, poor fit]
COCCn1c(-c2cccc([N+](=O)[O-])c2)nc2c1c(=O)[nH]c(=O)n2Cc1ccccc1 35.5 µM [inhibitor, single point]
O=C(NCc1cccs1)C1CCN(c2ccc(S(=O)(=O)N3CCOCC3)cc2Cl)CC1 35.5 µM [inhibitor, single point]
O=c1[nH]c(-c2cccnc2)nc2sc(-c3ccccc3)cc12 8.91 µM [activator, single point]
c1ccc(-c2[nH]ncc2CN2CCN(Cc3ccc4c(c3)OCO4)CC2)cc1 0.355 µM [inhibitor, full curve, poor fit]
CCOC(=O)C1C(=O)C=C(c2cccc(NS(C)(=O)=O)c2)CC1c1ccco1 (configuration not stated) 25.1 µM [inhibitor, partial curve, poor fit]
Cc1ccc(-n2c(C)nn(-c3ncc(C(F)(F)F)cc3Cl)c2=O)cc1 20 µM [inhibitor, single point]
O=C(NCc1n[nH]c(=S)n1-c1ccccc1)c1ccc(S(=O)(=O)N2CCOCC2)cc1 50.1 µM [inhibitor, single point]
C=CCOC(=O)C1=C(C)N(C)C(=O)NC1c1cc2c(cc1Br)OCO2 (configuration not stated) 0.141 µM [inhibitor, full curve, poor fit]
CCN(C(=O)Cc1ccccc1OC)c1nnc(-c2ccncc2)s1 0.178 µM [inhibitor, full curve, poor fit]
O=C1CC(N2CCC(c3nc4ccccc4o3)CC2)C(=O)N1c1ccc(F)cc1 (configuration not stated) 35.5 µM [inhibitor, single point]
O=C(COC(=O)C12CC3CC(CC(O)(C3)C1)C2)N1CCN(S(=O)(=O)c2ccc(Cl)cc2)CC1 56.2 µM [inhibitor, single point]
C=CCn1c(NC(C)c2cc(Cl)ccc2O)nc2ccccc21 (configuration not stated) 39.8 µM [inhibitor, partial curve]
CCc1ccccc1NC(=O)COc1ccc2oc(-c3ccc(OC)cc3)cc(=O)c2c1 39.8 µM [activator, single point]
COc1cccc(-c2nn3c(-c4ccccn4)nnc3s2)c1 31.6 µM [inhibitor, single point]
Cc1c(C(=O)Nc2ccc(F)c(F)c2)oc2ccc(S(=O)(=O)N3CCCCC3)cc12 5.62 µM [inhibitor, full curve]
CC(C)(Oc1ccc(Cl)cc1)C(=O)N/N=C/c1cn[nH]c1-c1ccccc1 11.2 µM [inhibitor, partial curve]
COCCN1C=C(C(=O)OC)C(c2cc3c(cc2Br)OCO3)C(C(=O)OC)=C1 56.2 µM [activator, single point]
CCCNC(=O)Cc1ncn[nH]1 7.08 µM [inhibitor, partial curve]
C=CCN1C(=O)S/C(=C\c2ccc3c(c2)n(C)c(=O)n3C)C1=O 0.447 µM [inhibitor, full curve]
CCOC(=O)NCC(C#CCN(CC)CC)N(CC)CC (configuration not stated) 1.12 µM [inhibitor, single point]

Activity change, negative = inhibition, inconclusive:
COc1ccccc1NC(=O)c1ccc2c(c1)nnn2C 9.46% [activator]
COCCn1nnnc1C(c1ccc(Cl)cc1)N1CCSCC1 (configuration not stated) -17.5% [inhibitor]
CCCCC(=O)NNC(=S)NC(=O)c1ccc(C)cc1 19.6% [activator]
CCN(CC)S(=O)(=O)c1ccc(NC(=O)COC(=O)CCc2cc(OC)c(OC)c(OC)c2)cc1 -16.3% [inhibitor]
C=CCOC(=O)c1sc(NC(=O)c2ccc(OC)cc2)nc1C 17.5% [activator]
COC(=O)c1ccc(-c2noc(CN(Cc3nccn3C)C(C)C)n2)cc1 15.5% [activator]
CCOc1ccc(C2OC34CCCCC3C(C#N)(C#N)C2(C#N)C(=N)O4)cc1OC (configuration not stated) 99.7% [activator]

Activity change, negative = inhibition, inactive:
CCc1ccc(NC(=O)N2CCN(c3ccccc3)CC2)cc1 0.27%
COc1ccc(Cl)cc1N(CC(=O)N1CCCCC1)S(C)(=O)=O -2.73%
O=C(CSc1nc2ccccc2c(=O)n1CCCN1CCOCC1)Nc1ccc2c(c1)OCO2 8.61%
COc1cccc2c1C(=O)c1c(O)c3c(c(O)c1C2=O)C[C@@](O)(C(C)=O)C[C@@H]3O[C@H]1C[C@H](N)[C@H](O)[C@H](C)O1 10.4% [at 15.4 µM]
CC1(C)CN(c2ccccc2)N(C(=O)c2ccc(C#N)cc2)C1=O -0.81%
O=C(c1cc(-c2ccccn2)nc2ccc(Br)cc12)N1CCN(S(=O)(=O)c2ccccc2)CC1 -9.62%
COc1cc(OC)c([N+](=O)[O-])cc1/C=N/NC(=O)c1ccncc1 3.07%

From PubChem BioAssay AID1466 (National Center for Advancing Translational Sciences (NCATS), 2008)
